# In the supplement of paper PMC8728848:
# The other results are listed elsewhere or left out.
# What was measured:
# Test in all cases: glycan array binding signal (z-score within array); higher = stronger binding
# Details in all cases: glycan notation: IUPAC condensed, linker removed
# [1] = molecular target: Neu5Ac(a2-3)Gal(b1-4)GlcNAc(b1-3)Gal(b1-4)GlcNAc(b1-2)Man(a1-3)[Neu5Ac(a2-3)Gal(b1-4)GlcNAc(b1-3)Gal(b1-4)GlcNAc(b1-2)Man(a1-6)]Man(b1-4)GlcNAc(b1-4)GlcNAc
# In short: (§1)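 Arrays were curated from the Consortium for Functional Glycomics database, 3228 in total, and kept only where the protein sequence was available. Binding is expressed as a within-array Z-score. This score was averaged across arrays of the same protein sequence at different concentrations or buffers and across linkers, and negative values can be read as non-binding.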
# [2] = molecular target: Neu5Ac(a2-3)Gal(b1-4)GlcNAc(b1-3)Gal(b1-4)GlcNAc(b1-3)Gal(b1-4)GlcNAc
# In short: as §1
# [3] = molecular target: Neu5Ac(a2-3)Gal(b1-4)GlcNAc(b1-3)Gal(b1-4)GlcNAc(b1-3)Gal(b1-4)GlcNAc(b1-2)Man(a1-3)[Neu5Ac(a2-3)Gal(b1-4)GlcNAc(b1-3)Gal(b1-4)GlcNAc(b1-3)Gal(b1-4)GlcNAc(b1-2)Man(a1-6)]GalNAc
# In short: as §1
# [4] = molecular target: Neu5Ac(a2-3)Gal(b1-4)GlcNAc(b1-3)Gal(b1-4)GlcNAc(b1-3)GalNAc
# In short: as §1
# [5] = molecular target: Neu5Ac(a2-3)Gal(b1-4)GlcNAc(b1-3)Gal(b1-4)GlcNAc(b1-3)[Neu5Ac(a2-3)Gal(b1-4)GlcNAc(b1-3)Gal(b1-4)GlcNAc(b1-6)]GalNAc
# In short: as §1
# [6] = molecular target: Neu5Ac(a2-3)Gal(b1-4)GlcNAc(b1-3)Gal(b1-4)GlcNAc(b1-6)[Gal(b1-3)]GalNAc
# In short: as §1
# [7] = molecular target: Neu5Ac(a2-3)Gal(b1-4)GlcNAc(b1-3)Gal(b1-4)[Fuc(a1-3)]GlcNAc
# In short: as §1
# [8] = molecular target: Neu5Ac(a2-3)Gal(b1-4)GlcNAc(b1-3)GalNAc
# In short: as §1
# [9] = molecular target: Neu5Ac(a2-3)Gal(b1-4)GlcNAc(b1-3)[Neu5Ac(a2-3)Gal(b1-4)GlcNAc(b1-6)]GalNAc
# In short: as §1
# [10] = molecular target: Neu5Ac(a2-3)Gal(b1-4)GlcNAc(b1-6)GalNAc
# In short: as §1
# [11] = molecular target: Neu5Ac(a2-3)Gal(b1-4)GlcNAc(b1-6)[Gal(b1-3)]GalNAc
# In short: as §1
# [12] = molecular target: Neu5Ac(a2-3)Gal(b1-4)GlcNAc(b1-6)[Neu5Ac(a2-3)Gal(b1-3)]GalNAc
# In short: as §1
# [13] = molecular target: Neu5Ac(a2-3)Gal(b1-4)GlcNAc6S
# In short: as §1
# [14] = molecular target: Neu5Ac(a2-3)Gal(b1-4)[Fuc(a1-3)]GlcNAc
# In short: as §1
# [15] = molecular target: Neu5Ac(a2-3)Gal(b1-4)[Fuc(a1-3)]GlcNAc(b1-2)Man
# In short: as §1
# [16] = molecular target: Neu5Ac(a2-3)Gal(b1-4)[Fuc(a1-3)]GlcNAc(b1-3)Gal
# In short: as §1
# [17] = molecular target: Neu5Ac(a2-3)Gal(b1-4)[Fuc(a1-3)]GlcNAc(b1-3)Gal(b1-4)GlcNAc
# In short: as §1
# [18] = molecular target: Neu5Ac(a2-3)Gal(b1-4)[Fuc(a1-3)]GlcNAc(b1-3)Gal(b1-4)[Fuc(a1-3)]GlcNAc(b1-3)Gal(b1-4)[Fuc(a1-3)]GlcNAc
# In short: as §1
# [19] = molecular target: Neu5Ac(a2-3)Gal(b1-4)[Fuc(a1-3)]GlcNAc(b1-3)GalNAc
# In short: as §1
# [20] = molecular target: Neu5Ac(a2-3)Gal(b1-4)[Fuc(a1-3)]GlcNAc(b1-6)[Gal(b1-3)]GalNAc
# In short: as §1
# [21] = molecular target: Neu5Ac(a2-3)Gal(b1-4)[Fuc(a1-3)]GlcNAc(b1-6)[Neu5Ac(a2-3)Gal(b1-3)]GalNAc
# In short: as §1
# [22] = molecular target: Neu5Ac(a2-3)Gal(b1-4)[Fuc(a1-3)]GlcNAc6S
# In short: as §1
# [23] = molecular target: Neu5Ac(a2-3)Gal6S(b1-4)GlcNAc
# In short: as §1
# [24] = molecular target: Neu5Ac(a2-3)Gal6S(b1-4)[Fuc(a1-3)]GlcNAc
# In short: as §1
# [25] = molecular target: Neu5Ac(a2-3)GalNAc
# In short: as §1
# [26] = molecular target: Neu5Ac(a2-3)GalNAc(b1-4)GlcNAc
# In short: as §1
# [27] = molecular target: Neu5Ac(a2-3)[GalNAc(b1-4)]Gal(b1-4)Glc
# In short: as §1
# [28] = molecular target: Neu5Ac(a2-3)[GalNAc(b1-4)]Gal(b1-4)GlcNAc
# In short: as §1
# [29] = molecular target: Neu5Ac(a2-3)[GalNAc(b1-4)]Gal(b1-4)GlcNAc(b1-3)GalNAc
# In short: as §1
# [30] = molecular target: Neu5Ac(a2-3)[Neu5Ac(a2-6)]GalNAc
# In short: as §1
# [31] = molecular target: Neu5Ac(a2-6)Gal
# In short: as §1
# [32] = molecular target: Neu5Ac(a2-6)Gal(b1-3)GlcNAc(b1-3)[Gal(b1-4)GlcNAc(b1-6)]Gal(b1-4)Glc
# In short: as §1
# [33] = molecular target: Neu5Ac(a2-6)Gal(b1-4)Glc
# In short: as §1
# [34] = molecular target: Neu5Ac(a2-6)Gal(b1-4)GlcNAc
# In short: as §1
# [35] = molecular target: Neu5Ac(a2-6)Gal(b1-4)GlcNAc(b1-2)Man
# In short: as §1
# [36] = molecular target: Neu5Ac(a2-6)Gal(b1-4)GlcNAc(b1-2)Man(a1-3)Man(b1-4)GlcNAc(b1-4)GlcNAc
# In short: as §1
# [37] = molecular target: Neu5Ac(a2-6)Gal(b1-4)GlcNAc(b1-2)Man(a1-3)[Gal(b1-4)GlcNAc(b1-2)Man(a1-6)]Man(b1-4)GlcNAc(b1-4)GlcNAc
# In short: as §1
# [38] = molecular target: Neu5Ac(a2-6)Gal(b1-4)GlcNAc(b1-2)Man(a1-3)[GlcNAc(b1-2)Man(a1-6)]Man(b1-4)GlcNAc(b1-4)GlcNAc
# In short: as §1
binder,measurement,setting,value
SP16664B-bot-474-25-474 (Bacteroides ovatus) (protein) CEEDIEIGNKIDESSYLASTQLSGLLLDENTNKNSSVIELRNNEYSTNVVFRLSKLPQKGVDVQIAVEESYAAIYNTIHETDFEVFPAANVKIANNGTFVLAPDDKVTPSVKVTLTAFDGMEEDKTYIVPLTVTSSTEGVTFTETSKHMVLLVQDYRNKPNTNKGEDAVQTVLYFEVNDTNPLNALEFLTESGKYFFDHIVLFAANINWDPEKQRVYLANNENVQFLLDNNDKYLQPLRKAGMKIIISILGNHDEAGVAQLSDMGAREFARELAAYCRAYNLDGVAFDDEYSNSPDLSNPWLASPSAYAGSRLMYECKAVMPEKIVSLYNLGNMYSSSLQVIDGIEPGQYCDYAVADYGGAAGPGTGMTLKQCAGMSIELRRGSGNSSESTARSRKEAGYGYYMFFALDPSLYGSQVYRCQSVCKGLYDETLVYPSYYYKKNSTEREAIN,glycan array binding signal (z-score),[1],0.905
same,glycan array binding signal (z-score),[2],-0.276
same,glycan array binding signal (z-score),[3],0.899
same,glycan array binding signal (z-score),[4],0.067
same,glycan array binding signal (z-score),[5],0.172
same,glycan array binding signal (z-score),[6],-0.297
same,glycan array binding signal (z-score),[7],-0.159
same,glycan array binding signal (z-score),[8],-0.138
same,glycan array binding signal (z-score),[9],-0.587
same,glycan array binding signal (z-score),[10],-0.362
same,glycan array binding signal (z-score),[11],-0.456
same,glycan array binding signal (z-score),[12],-0.44
same,glycan array binding signal (z-score),[13],-0.718
same,glycan array binding signal (z-score),[14],-0.162
same,glycan array binding signal (z-score),[15],-0.268
same,glycan array binding signal (z-score),[16],-0.583
same,glycan array binding signal (z-score),[17],-0.465
same,glycan array binding signal (z-score),[18],0.057
same,glycan array binding signal (z-score),[19],0.253
same,glycan array binding signal (z-score),[20],0.544
same,glycan array binding signal (z-score),[21],0.158
same,glycan array binding signal (z-score),[22],-0.402
same,glycan array binding signal (z-score),[23],-0.537
same,glycan array binding signal (z-score),[24],-0.312
same,glycan array binding signal (z-score),[25],-0.346
same,glycan array binding signal (z-score),[26],-0.065
same,glycan array binding signal (z-score),[27],-0.205
same,glycan array binding signal (z-score),[28],-0.21
same,glycan array binding signal (z-score),[29],0.051
same,glycan array binding signal (z-score),[30],-0.511
same,glycan array binding signal (z-score),[31],0.54
same,glycan array binding signal (z-score),[32],-0.216
same,glycan array binding signal (z-score),[33],-0.109
same,glycan array binding signal (z-score),[34],0.101
same,glycan array binding signal (z-score),[35],-0.198
same,glycan array binding signal (z-score),[36],-0.046
same,glycan array binding signal (z-score),[37],0.54
same,glycan array binding signal (z-score),[38],-0.166
